Measured values published in patent US20110311517A1, “Antibodies and methods for treating estrogen receptor-associated diseases” (SHENOGEN PHARMA GROUP, LTD., priority 2009, published 2011).

Molecular target: T1, ERα36 (Homo sapiens, UniProt P03372)
T1 construct: made in house; host or cells: chemical synthesis (no expression host)
T1 sequence (P03372 284-310 isoform P03372-4 limits assumed): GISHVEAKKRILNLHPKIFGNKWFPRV
Assay: ELISA of re-natured ScFv binding to ERα36
Experimental: Streptavidin-coated 96-well plates were washed twice with PBS. Biotinylated ERα36 (final concentration of 20 μg/ml) was added into each testing well. The plates were incubated for 2 h at room temperature and washed three times with PBST. Re-natured ScFv samples (100 μl, S14A1r1, S24A2r2, S33A2r1, S41A3r3, S53A1r1, S66A1r1 and S72A2r1) were added into the testing wells respectively. Each ScFv was diluted five times in five gradients, and two parallel wells were loaded with each ScFv at each gradient. The plates were incubated at 37° C. for 1 h. The plates were washed three times with PBST, followed by addition of 100 μl anti-His-6 mouse monoclonal antibody (1:2000 dilution) per well and 1 h incubation at 37° C. The plates were washed three times with PBST, followed by addition of 100 μl goat anti-mouse-HRP (1:2500 dilution) per well and 1 h incubation at 37° C. The plates were washed six times with PBST, followed by addition of 100 μl OPD to develop under the protection from light. The reactions were terminated by adding 50 μl 2M H2SO4 to each well, and data were collected by microplate reader at 490 nm.
One positive control and three negative controls were performed in parallel. The positive control used rabbit anti-ER multi-clonal antibody serum in replacement of the ScFv re-natured sample and goat-anti-rabbit-HRP in replacement of goat-anti-mouse HRP.

[1] = ScFv concentration 232.00 μg/ml

B1: ScFv5: fully human anti-ERα36 single chain antibody, SEQ ID NO: 11 (protein)
scFv: QSALTQPPSASGTPGQRVTVS[letters of about 80 residues omitted]VFGGGTKLTVLGSGGSTITSYNVYYTKLSSSGTQVQLVQSGAEVKKPGESLKISCKGSGYSFTSYWIGWVRQMPGKGLEWMGIIYPGDSDTRYSPSFQGQVTISADKSISTAYLQWSSLKASDTAMYYCASGIYDAFDIWGQGTMVTVSSAS
modifications: scFv5
OD490 Well1 (ScFv concentration 0.36 μg/ml): 0.124 | OD490 Well2 (ScFv concentration 0.36 μg/ml): 0.128 | OD490 Well1 (ScFv concentration 1.80 μg/ml): 0.148 | OD490 Well2 (ScFv concentration 1.80 μg/ml): 0.137 | OD490 Well1 (ScFv concentration 9.20 μg/ml): 0.168 | OD490 Well2 (ScFv concentration 9.20 μg/ml): 0.169 | OD490 Well1 (ScFv concentration 46.00 μg/ml): 0.676 | OD490 Well2 (ScFv concentration 46.00 μg/ml): 0.687 | OD490 Well1 [1]: 0.743 | OD490 Well2 [1]: 0.725
